Assay results taken from ChEMBL document CHEMBL4888484, “Replenishing the malaria drug discovery pipeline: Screening and hit evaluation of the MMV Hit Generation Library 1 (HGL1) against asexual blood stage Plasmodium falciparum ,using a nano luciferase reporter read-out” (2022).
The campaign covered roughly 150,000 compounds. About 540 (0.36%) showed an effect of 50% or more. This is one part of the list.

Tested on: Plasmodium falciparum
Experiment: Primary screen in NF54 nanoGlo assay, in single point, at 2uM, 72h; a lower Z score goes with more inhibition
Format: functional, Erythrocyte
Conditions: timepoint 72 hour

Row | SMILES | % Inhibition [%] | Z score
1 | Cc1nc(C(=O)NCCCOC(C)C)c(C)s1 | -13 | 1.26
2 | O=C(Nc1ccc2c(c1)C(=O)N(C[C@H]1CCCO1)C2=O)c1cccs1 | 4 | -0.47
3 | Cc1cc(CS(=O)(=O)N2CCC[C@H]2c2noc(C)n2)no1 | 32 | -0.6
4 | O=C(Nc1cccnc1)NC1C2CCC(C2)C1CO (stereo not given) | -11 | 1.5
5 | O=C1[C@@H]2CCCN2C(=O)N1C1CCN(c2ccccn2)C1 (stereo not given in full) | -11 | 1.65
6 | O=C(c1cn(CC2CC2)nn1)N1C[C@@H]2CCCN2Cc2ccccc21 | -2 | 0.32
7 | Cc1ccc([C@H](C)N(C)c2ncnc3ccsc23)s1 | -1 | 0.17
8 | CC[C@H](C)N(Cc1cc(NC(=O)NC(C)C)ccc1N(C)C)C(=O)CC(C)(C)C | 3 | -0.39
9 | Cc1nc(C)c(-c2cc(C(=O)NC3CCCCCC3)[nH]n2)s1 | -4 | 0.55
10 | CCN(CC(=O)Nc1ccc2c(c1)OCCO2)CC(=O)N1CCc2ccccc2C1 | -4 | 0.62
11 | O=C(Cc1c(F)cccc1Cl)Nc1cccc(C(=O)NC2CC2)c1 | 10 | -1.14
12 | CC(C)CN(CCC(=O)Nc1ccccc1C#N)C(C)C | -8 | 1.2
13 | CCOC[C@H]1CCCN1C(=O)C1(N2CCCCC2)CCCCC1 | -6 | 1.1
14 | C[C@H](OC(=O)c1ccc2c(c1)OCCCO2)c1nc2ccccc2o1 | -7 | 0.78
15 | C[C@H]1CCc2nc(O)c(C(=O)N3CCN(C)CC3)cc2C1 | -1 | 0.17
16 | CCN(C(=O)Nc1ccc(C(F)(F)F)cc1)[C@H]1COC[C@@H]1O | -7 | 1.18
17 | COCCNc1ccc(CNC(=O)N2CC[C@@H](C)O[C@@H](C)C2)cc1 | -9 | 1.42
18 | CCn1cc(Br)cc1C(=O)N1CCCN2CCC[C@H]2C1 | -4 | 0.46
19 | Cc1nnsc1C(=O)NC1CCCC(OC(=O)Nc2ccc(F)cc2)C1 (stereo not given) | 10 | -1.63
20 | CCCN(CC#N)C(=O)c1cc(F)c(Cl)cc1Cl | -10 | 1.25
21 | COc1ccc(Cc2nnc(C)o2)cc1Cl | -5 | 0.73
22 | Cc1ccc(C)c(-c2n[nH]cc2CN[C@H]2CCCN(c3ncccn3)C2)c1 | -11 | 1.21

Row | SMILES | % Inhibition [%] | Z score
23 | O=C(COc1ccc(F)cc1)N1CC[C@H](OCCCc2ccccc2)C1 | -13 | 1.88
24 | Cc1nn(CC(=O)N2C[C@H](C)[C@@](O)(C3CC3)C2)cc1Cl | -4 | 0.49
25 | CC(=O)N[C@@H](C)c1nc(-c2cccnn2)no1 | -3 | 0.36
26 | COC1CC(N(C)C(=O)NC2CC(C)n3ccnc32)C12CCC2 (stereo not given) | 33 | -3.7
27 | Cc1ccc(CC(=O)N2CCC(CN3C[C@@H](C(=O)N4CCCC4)CC3=O)CC2)cc1 | 0 | 0.01
28 | Cc1ccc(CNC(=O)NCC(=O)N2CCC=C(F)C2)cc1 | 0 | 0.03
29 | CC(C)(NS(=O)(=O)CCCN1CCOCC1)c1cccc(F)c1 | 7 | -1.09
30 | Cc1nccnc1N1C[C@H](C(C)C)[C@@H](N(C)C)C1 | -10 | 1.72
31 | CN(C)Cc1csc(CN(C)Cc2cccc(O)c2)c1 | 2 | -0.25
32 | O=C(c1c(F)ccc(F)c1F)N1CCC[C@H](c2nc(-c3ccncc3)ncc2-c2ccccc2)C1 | 13 | -1.72
33 | Cc1nn(C)c(C)c1CCC(=O)N1C[C@H]2CC[C@@H](C1)N(CC1CC1)C2 | 1 | -0.22
34 | CCOc1ccc(Cl)cc1CNCCOC | -10 | 1.91
35 | O=c1[nH]c(=O)n(Cc2ncc(-c3ccccc3)o2)cc1Cl | -3 | 0.28
36 | COCC1(C(=O)NCc2cc(-c3ccccc3Cl)on2)CCC1 | -4 | 0.56
37 | COCCOc1ccc(N)c(C(F)(F)F)c1 | -13 | 1.31
38 | CC(C)(C)n1cc(CNC2(Cc3ccc(F)cc3Cl)CCOCC2)nn1 | 8 | -0.88
39 | O=C(c1ccc(Cl)cc1)N1CCN(c2nc3ccccc3c3nnc(C4CC4)n23)CC1 | -3 | 0.41
40 | CC1(C)C[C@@H]1C(=O)N[C@H]1CC[C@H](O)CC1 | -10 | 1.35
41 | O=C(c1ccccc1NCC(=O)N1CCNC1=O)N1CCC[C@H](O)C1 | -6 | 1.01
42 | COCCn1ccc(NC(=O)NC2(c3ccccc3)CCCC2)n1 | -21 | 1.91
43 | COc1cc(OC)cc(-n2nnc(-c3nc(-c4ccc5c(c4)OCO5)cs3)c2N)c1 | 10 | -1.18
44 | CC(C)C(=O)N1C[C@H](O)C[C@H]1c1nnc2n1CCN(Cc1ccc(F)c(F)c1)C2 | -7 | 0.77

Row | SMILES | % Inhibition [%] | Z score
45 | CCOc1ccc(C(=O)N2c3ccccc3C(Nc3ccccc3)[C@H](C)C2CC)cc1 (stereo not given in full) | -11 | 1.37
46 | COCc1nnc2n1CC[C@@H](NC(=O)c1ccoc1)CC2 | -7 | 1.11
47 | CN1C(=O)C[C@H](C(=O)NCCCc2ncc[nH]2)C1(C)C | 1 | -0.1
48 | Cc1ccc(CN2CCC(CNC(=O)c3cccc(NC(=O)c4nnc(C)s4)c3)CC2)cc1 | -10 | 1.3
49 | CN(C)c1cccc(C(=O)N2CCC(O)CC2)c1 | -5 | 0.81
50 | O=C1N[C@@H](c2ccc(OCc3ccc(Cl)cc3Cl)cc2)Nc2c1sc(=S)n2-c1ccccc1 | -3 | 0.31
51 | Cc1c(-c2c(-c3ccccc3)ncn2[C@H](C)c2ccccc2)cnn1C | 10 | -1.28
52 | CC(=O)Nc1cccc(NC(=O)N(CCN(C)C)CC(C)C)c1 | -1 | 0.22
53 | Cn1c(=O)c(-c2nc(-c3ccccc3Br)no2)c(O)c2cc(F)ccc21 | -5 | 0.63
54 | N#C[C@@H]1CC[C@H](NC(=O)N2CC(F)C2)C1 | -5 | 0.5
55 | CN(Cc1ccccc1)[C@H]1CCCN(c2nc3c(cc2C(N)=O)CCC3)C1 | 5 | -0.75
56 | COc1ccc(Br)c(C(=O)N2CC3(C[C@H](N4CCN(C)CC4)CO3)C2)c1 | -12 | 1.87
57 | O=C(COc1ccc(Cl)cc1)N1CCc2ccccc2[C@H]1c1ccccc1Cl | -1 | 0.15
58 | CCn1nc(C)c(CNCCN2CCc3ccccc3C2)c1C | 6 | -0.77
59 | Cc1cccc(N2CCN(C(=O)c3nnn4cc(C)[nH]c(=O)c34)CC2)c1 | -10 | 1.16
60 | CC(=O)N[C@H]1C[C@H](c2cc(NCCCNc3cccnc3)ncn2)C1 | -1 | 0.07
61 | O=C1NC2(CCCCC2)C(=O)N1c1ccccc1 | 28 | -3.17
62 | Cc1nc(COC(C)(C)C)oc1C(=O)N[C@H]1CCCn2ncnc21 | -8 | 1.21
63 | O=C(COC(=O)c1ccc(-c2ccccc2)cc1)Nc1cccc(S(=O)(=O)N2CCOCC2)c1 | -22 | 4.23
64 | Cc1c(CN2CCN(C3CCN(C(C)C)CC3)[C@@H](CCO)C2)[nH]c2c(C)cccc12 | -5 | 0.61
65 | CCC(C)[C@H](NC(=O)[C@H]1CC[C@H](CNC(=O)[C@@H](CC(C)C)NC(=O)OC(C)(C)C)CC1)C(=O)O (stereo not given in full) | -11 | 1.38
66 | COc1cccc(N2CCN(C(=O)c3cnn(-c4cccc(F)c4)c3C3CCN(C(=O)OC(C)(C)C)CC3)CC2)c1 | -6 | 1.06

Row | SMILES | % Inhibition [%] | Z score
67 | C[C@H]1CN(Cc2nccs2)C[C@]1(O)C1CCC1 | -1 | 0.2
68 | O=C(CC(F)(F)F)NCc1ccccn1 | 41 | -5.53
69 | COc1ccsc1CNC12CCCCC1C2 (stereo not given) | 4 | -0.73
70 | COc1cccc(OC)c1OCC#CCN1CCC(C)CC1 | 2 | -0.37
71 | COCCN1CC[C@H](c2ncnn2-c2cccnc2)C1 | -4 | 0.76
72 | O=C(CS(=O)(=O)C1CCCC1)N1CC[C@H](C(F)(F)F)C1 | -6 | 1.18
73 | Cc1nc(O)cc(CCNC(=O)[C@H](O)c2cccc(Cl)c2)n1 | 7 | -0.79
74 | CCNC(=O)c1ccc(NCc2nc(C3OCCO3)cs2)cc1 | 3 | -0.55
75 | Cc1cccc(-c2noc([C@H](Cc3ccccc3)NC(=O)C3CCC3)n2)c1 | -2 | 0.19
76 | Nc1cc(N[C@H]2CCCN(CCCc3ccccc3)C2)ncn1 | -9 | 1.81
77 | Cc1cccc(-c2nnc3n2C[C@@H](C(=O)NCc2oc(C)nc2C)CC3)c1 | -9 | 1.83
78 | O=C(C1COCCN1CC(F)F)N1CCCC(OCCO)C1 (stereo not given) | -8 | 1.34
79 | COC(=O)CC1(NC(=O)c2ccc3c(c2)OCO3)CCCC1 | 4 | -0.32
80 | O=C(CCc1ccc(F)cc1F)Nc1cnccn1 | -3 | 0.52
81 | COc1cccc(F)c1-c1c(-c2ccccc2)ncn1Cc1cnc(C)cn1 | -4 | 0.68
82 | N#C[C@@H]1CN(C(=O)CCn2nc3ccccn3c2=O)CCO1 | -5 | 0.77
83 | Cc1csc(CC(=O)c2ccc(O)cc2O)n1 | -10 | 1.33
84 | COC(=O)c1c(-c2cccc(Cl)c2)noc1Nc1ccc(C)c(Cl)c1 | 14 | -2.22
85 | c1cncc(-c2nc([C@@H]3CCCCO3)no2)c1 | -5 | 1.03
